Source: patent US9234216B2, “Variant CBH I polypeptides” (BP Corporation North America Inc., priority 2011, dated 2016)
Where a chain is given by its changes, count along the chain named. In names and notes the source's numbering stands.

B1: SEQ ID NO:136: BD29555 CBH I variant: R273K, R422K (product tolerance) (protein)
chain: MSALNSFNMYKSALILGSLLATAGAQQIGTYTAETHPSLSWSTCKSGGSCTTNSGAITLDANWRWVHGVNTSTNCYTGNTWNTAICDTDASCAQDCALDGADYSGTYGITTSGNSLRLNFVTGSNVGSRTYLMADNTHYQIFDLLNQEFTFTVDVSHLPCGLNGALYFVTMDADGGVSKYPNNKAGAQYGVGYCDSQCPRDLKFIAGQANVEGWTPSSNNANTGLGNHGACCAELDIWEANSISEALTPHPCDTPGLSVCTTDACGGTYSSDKYAGTCDPDGCDFNPYRLGVTDFYGSGKTVDTTKPITVVTQFVTDDGTSTGTLSEIRRYYVQNGVVIPQPSSKISGVSGNVINSDFCDAEISTFGETASFSKHGGLAKMGAGMEAGMVLVMSLWDDYSVNMLWLDSTYPTNATGTPGAAKGSCPTTSGDPKTVESQSGSSYVTFSDIRVGPFNSTFSGGSSTGGSSTTTASGTTTTKASSTSTSSTSTGTGVAAHWGQCGGQGWTGPTTCASGTTCTVVNPYYSQCL
B2: SEQ ID NO:134: wild type BD29555 CBH I (cellobiohydrolase I), parent of the variants (protein)
chain: B1 chain with K273R, K422R
modifications: /note=“Description of Unknown Wildtype cellobiohydrolase polypeptide”
B3: SEQ ID 81, 82: BD29555 CBH I variant: V392A, V401A, T417A (protein)
chain: B1 chain with K273R, V392A, V401A, T417A, K422R
B4: SEQ ID 83, 84: BD29555 CBH I variant: L404T (protein)
chain: B1 chain with K273R, L404T, K422R
B5: SEQ ID 85, 86: BD29555 CBH I variant: S463Y (protein)
chain: B1 chain with K273R, K422R, S463Y
B6: SEQ ID 87, 88: BD29555 CBH I variant: A221V, V401A, G474W (protein)
chain: B1 chain with A221V, K273R, V401A, K422R, G474W
B7: SEQ ID 89, 90: BD29555 CBH I variant: A472M (protein)
chain: B1 chain with K273R, K422R, A472M
B8: SEQ ID 91, 92: BD29555 CBH I variant: V401A, V494L (protein)
chain: B1 chain with K273R, V401A, K422R, V494L
B9: SEQ ID 61, 62: BD29555 CBH I variant: S104N (Table A prints it under SEQ ID NO 60) (protein)
chain: B1 chain with S104N, K273R, K422R
B10: SEQ ID 63, 64: BD29555 CBH I variant: V121S (protein)
chain: B1 chain with V121S, K273R, K422R

Test: Cellobiose inhibition in saccharification assays using bagasse
Type: biochemical
Conditions: 48 hours, when beta-glucosidase was added (so in the source); 5% w/v pretreated bagasse, 4 mg/g CBHI, 35° C.
Method: (§1) The parent (wild-type) CBHI (SEQ ID NO:134, encoded by SEQ ID NO:133) and variant CBHI (SEQ ID NO:136, encoded by SEQ ID NO:135) were assayed to determine their cellobiose (product) inhibition.
In another assay, cellobiose inhibition was measured in saccharification assays using bagasse (12% solids in 200 mM MES buffer, pH 6) as the substrate. 5% w/v pretreated bagasse was incubated with 4 mg/g of CBHI at 35° C. at 20 RPM in hybridization ovens.
Work on B1 yielded a CBHI activity decrease of 22%.

Same assay, conditions: 48 hours, when no beta-glucosidase was added; 5% w/v pretreated bagasse, 4 mg/g CBHI, 35° C.
Molecule B2 has a CBHI activity decrease of 60%.

Same assay, conditions: 72 hours, when beta-glucosidase was added (so in the source); 5% w/v pretreated bagasse, 4 mg/g CBHI, 35° C.
B2 showed a CBHI activity decrease of 50%. B1 showed a CBHI activity decrease of 14%.

Same assay, conditions: no beta-glucosidase added or gluconolactone added
In the case of B1, the “effect of the presence of cellobiose on activity” value is reported as “less affected by the presence of cellobiose”.

Same assay, conditions: saccharification of bagasse
With B2 the “activity on bagasse, wild type compared with mutant” value was “higher than that of the CBHI mutant”.

Test: Cellobiose (product) inhibition with methylumbelliferyl lactoside (MUL) as substrate
Type: biochemical
Conditions: inhibition of the CBHI by cellobiose
Method: as §1
In one assy, cellobiose inhibition was measured using methylumbelliferyl lactoside (MUL) as the substrate. IC50, the half maximal inhibitory concentration of cellobiose, was determined.
In the case of B2, the “IC50, the half maximal inhibitory concentration of cellobiose” value is reported as 60 µg/mL. In the case of B1, the “IC50, the half maximal inhibitory concentration of cellobiose” value is reported as greater than 250 µg/mL.

Test: Thermotolerance: residual activity on MUL after 20 minute heat challenge
Type: biochemical
Conditions: heat challenge 20 minutes at 60 C, residual activity on MUL at 22 C vs non-challenged sample
Method: Samples heat challenged at 22 C, 60 C, 65 C, 70 C, 75 C, and 80 C for 20 minutes. After heat challenge, samples cooled on ice. Residual activity determined on MUL at 22 C.
(§2) Calculations for % residual activity: % Residual Activity=Activity heat challenged sample/Activity non-challenged sample (22 C). All residual activities calculated indepentyl from parent residual activity Melting Temperatures were determined by Differential Scanning calorimetry, using 500-700 μg/mL of degassed sample.
With B2 the “% Residual Activity @ 60° C.” value was 83%. For B3, the “% Residual Activity @ 60° C.” value was 96%. For B4, the “% Residual Activity @ 60° C.” value was 93%. For B5, the “% Residual Activity @ 60° C.” value was 99%. In the case of B6, the “% Residual Activity @ 60° C.” value is reported as 99%. In the case of B7, the “% Residual Activity @ 60° C.” value is reported as 96%. With B8 the “% Residual Activity @ 60° C.” value was 96%. For B9, the “% Residual Activity @ 60° C.” value was 97%. For B10, the “% Residual Activity @ 60° C.” value was 80%.

Same assay, conditions: heat challenge 20 minutes at 65 C, residual activity on MUL at 22 C vs non-challenged sample
In the case of B2, the “% Residual Activity @ 65° C.” value is reported as 26%. With B3 the “% Residual Activity @ 65° C.” value was 88%. In the case of B4, the “% Residual Activity @ 65° C.” value is reported as 77%. With B5 the “% Residual Activity @ 65° C.” value was 96%. With B6 the “% Residual Activity @ 65° C.” value was 96%. With B7 the “% Residual Activity @ 65° C.” value was 47%. For B8, the “% Residual Activity @ 65° C.” value was 92%. For B9, the “% Residual Activity @ 65° C.” value was 87%. For B10, the “% Residual Activity @ 65° C.” value was 39%.

Same assay, conditions: heat challenge 20 minutes at 70 C, residual activity on MUL at 22 C vs non-challenged sample
In the case of B2, the “% Residual Activity @ 70° C.” value is reported as 18%. For B3, the “% Residual Activity @ 70° C.” value was 71%. For B4, the “% Residual Activity @ 70° C.” value was 69%. For B5, the “% Residual Activity @ 70° C.” value was 41%. With B6 the “% Residual Activity @ 70° C.” value was 35%. For B7, the “% Residual Activity @ 70° C.” value was 28%. For B8, the “% Residual Activity @ 70° C.” value was 52%. With B9 the “% Residual Activity @ 70° C.” value was 46%. For B10, the “% Residual Activity @ 70° C.” value was 51%.

Same assay, conditions: heat challenge 20 minutes at 75 C, residual activity on MUL at 22 C vs non-challenged sample
With B2 the “% Residual Activity @ 75° C.” value was 31%. With B3 the “% Residual Activity @ 75° C.” value was 67%. For B4, the “% Residual Activity @ 75° C.” value was 69%. For B5, the “% Residual Activity @ 75° C.” value was 42%. With B6 the “% Residual Activity @ 75° C.” value was 43%. For B7, the “% Residual Activity @ 75° C.” value was 54%. In the case of B8, the “% Residual Activity @ 75° C.” value is reported as 61%. With B9 the “% Residual Activity @ 75° C.” value was 54%. With B10 the “% Residual Activity @ 75° C.” value was 53%.

Same assay, conditions: heat challenge 20 minutes at 80 C, residual activity on MUL at 22 C vs non-challenged sample
With B2 the “% Residual Activity @ 80° C.” value was 43%. For B3, the “% Residual Activity @ 80° C.” value was 71%. With B4 the “% Residual Activity @ 80° C.” value was 72%. With B5 the “% Residual Activity @ 80° C.” value was 48%. For B6, the “% Residual Activity @ 80° C.” value was 51%. With B7 the “% Residual Activity @ 80° C.” value was 52%. For B8, the “% Residual Activity @ 80° C.” value was 58%. For B9, the “% Residual Activity @ 80° C.” value was 56%. For B10, the “% Residual Activity @ 80° C.” value was 54%.

Test: Melting temperature by Differential Scanning calorimetry
Type: physicochemical
Conditions: DSC, 500-700 μg/mL degassed sample
Method: as §2
For B2, the “Melting Temperature” value was 69.5 °C. With B3 the “Melting Temperature” value was 74.9 °C. In the case of B4, the “Melting Temperature” value is reported as 70.3 °C. For B5, the “Melting Temperature” value was 74.2 °C. In the case of B6, the “Melting Temperature” value is reported as 73.3 °C. For B7, the “Melting Temperature” value was 70.7 °C. With B8 the “Melting Temperature” value was 73.6 °C. With B9 the “Melting Temperature” value was 71.1 °C. With B10 the “Melting Temperature” value was 68.7 °C.

Test: Saccharification of pretreated bagasse by CBHI variants in a cocktail with CBHII and EG
Type: biochemical
Conditions: Table 2; 5% w/v pretreated bagasse, 35° C., pH5.2, CBHI 4 mg/g cellulose; (% conversion of variant − % conversion of wt)/% conversion of wt
With B2 the “% improvement over WT @ 48 hr” value was 0.0%.

Test: Cellobiose inhibition with 0.1% phosphoric acid swollen cellulose (PASC) and Calcofluor
Type: biochemical
Conditions: inhibition of the CBHI by cellobiose, 0.1% PASC, Calcofluor, 2 hours at 35° C.
Method: as §1
In another assay, cellobiose inhibition was measured using 0.1% phosphoric acid swollen cellulose (PASC) as the substrate. CBHI was incubated with PASC and Calcofluor (which intercalates between cellulose strands and fluoresces upon binding to cellulose) for 2 hours at 35° C. IC50 was measured.
Work on B2 yielded an IC50 of cellobiose of 2200 µg/mL. In the case of B1, the IC50 of cellobiose is reported as greater than 25000 µg/mL.
